“And” between values parts separate entries of the source, which are not always exact repeats. Identical values can stand only once. The campaign covered roughly 310,000 compounds. About 18,000 (5.8%) were called active. The inconclusive results got no clear call from the source; some entries with a clear call stand among them for comparison. Calls come from the whole dose curve; as a rule, active = well fitted inhibition curve with a large enough effect; inconclusive = small, poorly fitted or top-dose-only effect, or another doubt; inactive = no such curve, though single readings can be large or run the other way. No potency is given beside an inconclusive call; the fits are too rough.
Test: Primary qHTS for delayed death inhibitors of the malarial parasite plastid, 48 hour incubation
Conditions: P. falciparum luciferase growth in erythrocytes; series mostly up to 28.7 µM; activity change, negative = inhibition: at the top concentration
How it was run: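 Compounds are pin-transferred into medium, infected erythrocytes (2% hematocrit, 0.1% parasitemia final) are added, and plates sit one parasite generation at 37 C in 5% CO2. Detection reagent is then added and luminescence measured.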
% is set by controls: 0 for no effect and ±100 for the full control effect; potency is the fitted concentration of half-maximal effect; tags give direction and shape of the fitted curve.

Row | SMILES | activity change, negative = inhibition | Potency
1 | O=C(CSc1nnc(-c2ccco2)n1Cc1ccco1)Nc1ccccc1 | inactive: 10.4% | –
2 | S=c1[nH]nc(-c2ccncc2)n1/N=C/c1cccc(Cl)c1 | – | inconclusive [inhibitor, single point]
3 | CCOc1ccc(-n2c(C)c(C(C)=O)c3cc(OCC(N)=O)ccc32)cc1 | – | active: 13.1 µM
4 | Clc1cccc(-c2cc3nc4c(c(N5CCNCC5)n3n2)CCCC4)c1 | inactive: 87% | –
5 | COc1ccccc1/C=N/N1CCN(c2ccc(Cl)cc2)CC1 | inactive: -9.46% | –
6 | CCc1ccc(C(C)NC(=O)c2ncn[nH]2)cc1 (stereo not given) | inactive: 11.6% | –
7 | CCCCn1c(=O)[nH]c(=O)c2c(C(=O)OCC)cc(-c3cccs3)nc21 | inactive: 0% | –
8 | O=C(c1ccncc1)N1CCN(C(=O)c2cccc3ccccc23)CC1 | – | inconclusive [inhibitor, partial curve]
9 | Oc1ccc(Cl)cc1CNc1ccccn1 | – | inconclusive [inhibitor, single point]
10 | O=C(Nc1ccc(Cl)c(S(=O)(=O)N2CCCCC2)c1)c1ccncc1 | – | inconclusive [inhibitor, partial curve, poor fit]
11 | C=C(C)CSc1nc2ccccc2[nH]1 | inactive: 39.5% | –
12 | COc1cc(C(=O)Nc2ccc(-c3nc4cc(C)ccc4o3)c(O)c2)cc(OC)c1OC | – | inconclusive [inhibitor, single point]
13 | COc1ccc(C(C(=O)NC2CCCC2)N(C(=O)c2ccco2)c2ccc3c(c2)OCO3)cc1OC (stereo not given) | – | inconclusive [inhibitor, partial curve, poor fit]
14 | CC(C)c1nnc(SCC(=O)N2CCc3ccccc32)n1N | – | inconclusive [inhibitor, single point]
15 | COc1cc(N2CCCC2)c(OC)cc1/C=C(/C#N)c1ccc(F)cc1 | – | active: 10.4 µM
16 | COc1ccc2cc3[n+](cc2c1OC)CCc1cc2c(cc1-3)OCO2 | – | active: 338 nM and active: 208 nM and active: 233 nM
17 | CC(C)NC(=O)NNC(=O)c1nn(-c2ccc(F)cc2)ccc1=O | – | inconclusive [inhibitor, single point]
18 | N=c1oc2ccc(Br)cc2cc1C(=O)NC1CCCCCC1 | inactive: 10.3% | –
19 | O=C1NC(=O)C2(CCCc3ccccc32)N1 (stereo not given) | inactive: 13.8% | –
20 | O=C(NCc1ccccc1)C1CCCN(S(=O)(=O)c2cccs2)C1 (stereo not given) | inactive: 14.9% | –
21 | COc1ccc(-c2cc(=O)c3ccccc3[nH]2)cc1 | – | inconclusive [inhibitor, single point]
22 | O=C(NCCc1ccccn1)c1cccc(S(=O)(=O)N2CCc3ccccc32)c1 | – | inconclusive [inhibitor, partial curve]
23 | COC(=O)[C@@]1(Cc2ccc(OC)cc2)[C@H]2c3cc(C(=O)N4CCCC4)n(CCn4cc([N+](=O)[O-])nc4C)c3C[C@H]2CN1C(=O)c1ccccc1 | – | inconclusive [inhibitor, full curve]

Row | SMILES | activity change, negative = inhibition | Potency
24 | CCCCCCCCCCOCC(O)CN (stereo not given) | – | inconclusive [inhibitor, single point]
25 | CCC(=O)N1CCc2cc(S(=O)(=O)N3CCN(C(=O)c4ccco4)CC3)ccc21 | – | inconclusive [inhibitor, single point]
26 | CC(=O)N1CCN(S(=O)(=O)c2cccc(C(=O)Nc3ccc4c(c3)OCO4)c2)CC1 | inactive: -19.6% | –
27 | CCc1ccc2nc(N(CCCN(C)C)C(=O)c3ccc(S(=O)(=O)N4CCc5ccccc5C4)cc3)sc2c1 | inactive: -15.3% | –
28 | Cn1c(=O)c2c(nc(NCc3ccc4c(c3)OCO4)n2Cc2ccccc2Cl)n(C)c1=O | inactive: 2.04% | –
29 | O=C(C1=C[C@H](c2coc3ccccc3c2=O)C[C@H](OCc2ccc(CO)cc2)O1)N1CCOCC1 | – | inconclusive [inhibitor, single point]
30 | COC(=O)C(=Cc1ccccc1[N+](=O)[O-])C(=O)OC | – | inconclusive [inhibitor, partial curve, poor fit]
31 | Cc1ccc(CCNC(=O)C23C[C@H]4C[C@@H](C2)CC(n2nnc(C)n2)(C4)C3)cc1 | inactive: -24.7% | –
32 | Cc1ccccc1N1CCN(C2CCCN(C(=O)c3ccnn3C)C2)CC1 (stereo not given) | – | inconclusive [inhibitor, partial curve]
33 | CCc1cccc(Nc2cnn(C34C[C@@H]5C[C@@H](CC(CC(=O)O)(C5)C3)C4)c(=O)c2Cl)c1 | – | inconclusive [inhibitor, single point]
34 | COc1cccc(-c2cc(C(=O)Nc3cc(C)n(Cc4ccc(Cl)cc4)n3)no2)c1 | – | active: 10.4 µM
35 | Cc1ccc(S(=O)(=O)N2CCN(C(=O)c3ccc(N4CCCC4)c([N+](=O)[O-])c3)CC2)cc1 | – | inconclusive [inhibitor, partial curve, poor fit]
36 | Cc1ccc(C)c(N2CCN(S(=O)(=O)c3c(C)noc3/C=C/N(C)C)CC2)c1 | – | inconclusive [inhibitor, single point]
37 | Cc1ccccc1Cn1c2ccccc2c2cn[nH]c(=O)c21 | – | inconclusive [inhibitor, single point]
38 | CCCCc1cc(=O)oc2cc(C)cc(OCC(=O)NCC3CCC(C(=O)O)CC3)c12 (stereo not given) | – | inconclusive [inhibitor, single point]
39 | O=C(NCc1n[nH]c(=S)n1-c1ccc(Cl)c(Cl)c1)c1ccc(S(=O)(=O)N2CCOCC2)cc1 | – | inconclusive [inhibitor, partial curve, poor fit]
40 | Cc1noc(C(=O)NCC2CCCO2)c1Cl (stereo not given) | inactive: 11.2% | –
41 | Cc1nc2nc(SCC(=O)NCCCN3CCOCC3)nn2c(C)c1Cc1ccccc1 | – | inconclusive [inhibitor, single point]
42 | O=C(Nc1cccc(F)c1)N1CC=C(n2c(=O)[nH]c3ccccc32)CC1 | – | active: 10.4 µM
43 | C=CCOC(=O)c1sc(NC(=O)c2ccco2)nc1C | inactive: 176% | –
44 | Cc1cc(-c2ccc(C)c(S(=O)(=O)NCC3CCN(Cc4ccccc4F)CC3)c2)on1 | – | inconclusive [inhibitor, single point]
45 | O=C(c1cc(F)c(F)cc1Cl)N1CCCc2ccccc21 | inactive: 15.5% | –

Reference: PubChem BioAssay AID504832 (National Center for Advancing Translational Sciences (NCATS), 2011)
